According to PubChem BioAssay AID686978 (National Center for Advancing Translational Sciences (NCATS), 2013):
In all, about 420,000 compounds went through this assay and about 64,000 (15%) were called active. This list was built around the results that the source calls inconclusive (neither active nor inactive); the mix of calls is not that of the screen. Calls follow the shape of the dose curve; as a rule, active = well fitted inhibition curve with a large enough effect; inconclusive = small, poorly fitted or top-dose-only effect; inactive = flat fitted curve, though single readings scatter. No potency is given beside an inconclusive call; the fits are too rough.

Experiment: qHTS for Inhibitors of human tyrosyl-DNA phosphodiesterase 1 (TDP1): qHTS in cells in absence of CPT; also: nearly all actives have a fitted effect of over 55% in size
Conditions: DT40 Tdp1-/- hTDP1 cells, no CPT, ATP luminescence, 48 h; activity change, negative = growth inhibition: at 46.2 µM (top of the series)
How it was run: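 DT40 Tdp1-/-;hTDP1 cells, no CPT (DMSO vehicle only), 400 cells/well; compounds pin-transferred; ≥48 hr, 37 °C; CellTiter-Glo 30 min RT dark, luminescence read.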
% is scaled to controls: 0 for no effect and ±100 for the full control effect; potency is read from the fitted curve at half-maximal effect; tags tell the direction and shape of the fitted curve.

Row | SMILES | activity change, negative = growth inhibition | Potency
1 | COC(=O)N/N=C(\C)c1ccc(OC(F)F)cc1OC(F)F | inactive: 0.449% | –
2 | Cc1ccc(NC(=O)c2cccc(N3C(=O)C4C5CCC(C5)C4C3=O)c2)c(C)c1 (centres undefined) | – | inconclusive [inhibitor, partial curve]
3 | COC(=O)Cc1ccc(OC2(C)CCN(Cc3ccccc3OC(F)F)C2)cc1 (centres undefined) | – | inconclusive [inhibitor, single point]
4 | Cc1ccc(C(=O)Nc2ccccc2-c2ccccc2)cc1S(=O)(=O)Nc1cccc(C)c1C | – | active: 20.6 µM
5 | O=S(=O)(CCSc1nc2ccccc2s1)c1nc2ccccc2s1 | – | active: 3.66 µM
6 | Cc1cccc(N2CCC(N=CN(C)C)=N2)c1 | inactive: -4.17% | –
7 | O=C(Oc1ccccc1)N1CCC2(CC1)CN(c1ccccc1)C2 | – | inconclusive [inhibitor, partial curve]
8 | COc1ccc(CCN2CC(C(=O)OCC(=O)N(C)CC(=O)Nc3ccccc3Cl)CC2=O)cc1OC (centres undefined) | inactive: 19.6% | –
9 | CCc1ccc(CN2CCC(n3nccc3NC(=O)c3ccccc3OC)CC2)o1 | – | inconclusive [inhibitor, single point]
10 | O=C(NN1C(=O)/C(=C/c2ccc(O)cc2)SC1=S)c1cccc(O)c1 | – | inconclusive [inhibitor, single point]
11 | N#Cc1c(N)[nH]c(=S)c(C#N)c1-c1ccccc1 | – | inconclusive [inhibitor, single point]
12 | CC1CCc2sc(C(=O)NC3CCCCC3)cc2C1 (centres undefined) | – | inconclusive [inhibitor, partial curve, poor fit]
13 | CCn1cc(C(=O)NCc2ccco2)c(=O)c2cc(F)c(N3CCN(C(=O)c4ccco4)CC3)cc21 | – | inconclusive [inhibitor, single point]
14 | COc1ccc(C2C(C(=O)c3ccco3)=C(O)C(=O)N2CC2CCCO2)cc1OC (centres undefined) | – | inconclusive [inhibitor, single point]
15 | COc1ccc(-c2noc(CSc3nnc(Cc4ccccc4)n3-c3ccccc3)n2)cc1OC | – | active: 13 µM
16 | CCCc1nn(C)c(C(N)=O)c1[N+](=O)[O-] | inactive: 2.41% | –
17 | Cc1ccc(CNC(=O)CNS(=O)(=O)c2cccc3nsnc23)cc1 | inactive: -8.62% | –
18 | CC1(C)CC(NC(=O)CCc2ccccc2)CC(C)(C)N1 | – | inconclusive [inhibitor, partial curve, poor fit]
19 | c1ccc(CCC2CCCCN2Cc2nc(-c3ccc4c(c3)OCO4)no2)nc1 (centres undefined) | – | active: 20.6 µM
20 | Cc1c(NC(=O)Nc2ccc(Cl)c(Cl)c2)c(=O)n(-c2ccccc2)n1C | – | inconclusive [inhibitor, partial curve, poor fit]
21 | CCN(C(=O)CSc1nnc(Nc2ccccc2)s1)C1CCS(=O)(=O)C1 (centres undefined) | inactive: 0.951% | –
22 | COc1ccc(C(=O)NCCSCc2ccc(C)cc2)cc1 | – | inconclusive [inhibitor, partial curve]
23 | COc1ccc(NC(=O)N(C2CCCCC2)C(C)c2ccco2)c(OC)c1 (centres undefined) | – | inconclusive [inhibitor, single point]
24 | COCCNc1oc(-c2ccc(COc3ccc(OC)cc3)o2)nc1C#N | – | inconclusive [inhibitor, single point]
25 | Cc1cc2nc3s/c(=C/c4ccc(-c5ccccc5C(=O)O)o4)c(=O)n3c2cc1C | – | inconclusive [inhibitor, single point]

Row | SMILES | activity change, negative = growth inhibition | Potency
26 | O=C(Nc1ccc(Cl)c(S(=O)(=O)N2CCOCC2)c1)C1CCC1 | inactive: -14.4% | –
27 | O=[N+]([O-])/C=C1\C=CC=CN1Cc1ccc(Cl)cc1 | inactive: 26.3% | –
28 | CCN(CC(=O)N1CCN(c2ccccc2)CC1)S(=O)(=O)c1ccc(C)cc1 | – | active: 13 µM
29 | COc1cccc(NC(=O)CSc2ccc(-c3ccco3)nn2)c1 | inconclusive: -30% [inhibitor] | –
30 | Cc1nc2ncnn2c(C)c1CCC(=O)NCCc1ccccc1 | inactive: -26.5% | –
31 | CN1CC(=O)N(C)c2ncn(Cc3ccccc3)c2C1=O | inactive: 5.97% | –
32 | CCc1nc2c(OCCC3CCCCC3)cccn2c1N(C)C(=O)CC(C)C | – | active: 10.3 µM
33 | CCOC(=O)C(=CNc1cscc1S(=O)(=O)C(C)C)C(=O)OCC | inconclusive: -33.6% [inhibitor] | –
34 | O=C(NC1CC1)c1ccc(COc2ccc(F)cc2)o1 | – | inconclusive [inhibitor, single point]
35 | CC(C)CNC(=O)C1(C)CCCN1Cc1ccccc1OC(F)F (centres undefined) | – | active: 23.1 µM
36 | COc1ccccc1C(N)=S | inactive: -8.05% | –
37 | COc1ccc(N(C)S(=O)(=O)c2cccc(C(=O)OC(C)C(=O)NC3CCCCC3C)c2)cc1 (centres undefined) | – | inconclusive [inhibitor, single point]
38 | Cc1ccccc1-n1c(C)cc(/C=C2\NC(=O)NC2=O)c1C | – | inconclusive [inhibitor, partial curve]
39 | COC1=CC(=O)C(O)=C/C1=C\C=C\c1ccccc1 | – | active: 4.61 µM
40 | CCN(CC)CCNC(=S)Nc1ccc2nc(N3CCCC3)cc(C)c2c1 | – | active: 10.3 µM
41 | S=C(NCCc1ccc(Cl)cc1)NC1CCCC1 | – | inconclusive [inhibitor, single point]
42 | Cn1c(SCC(=O)Nc2ccc3cn[nH]c3c2)nnc1-c1cccs1 | – | inconclusive [inhibitor, partial curve]
43 | CCC(=O)n1nc(NCc2ccccc2OC)nc1NCc1ccccc1OC | – | inconclusive [inhibitor, single point]
44 | Cc1nc2c(C(=O)O)cnn2c(C)c1Cc1ccccc1 | inactive: -8.89% | –
45 | Cc1ccccc1C(=O)Nc1nc2nc(C)c(C)c(=O)n2[nH]1 | inactive: -20.5% | –
46 | O=C(NC(c1ccccc1)c1ccsc1)C1CCN(CCOc2ccc(Cl)cc2Cl)CC1 (centres undefined) | – | inconclusive [inhibitor, single point]
47 | CCc1ccc2oc(-c3cccc(NC(=O)c4cc5ccccc5o4)c3)nc2c1 | – | inconclusive [inhibitor, single point]
48 | CCCCc1c(-c2ccccc2OC)ncn1CCc1ccccc1Cl | – | active: 14.6 µM
49 | O=C(Nc1ccccc1N1CCOCC1)c1ccc(Cl)c(S(=O)(=O)N2CCCC2)c1 | – | inconclusive [inhibitor, single point]
